Screen size: about 48,000 compounds; about 1,200 (2.5%) were called active. Not shown: some 2% with an inconclusive outcome.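 How the source made its calls: active means activation of at least 60% and not above a set upper limit (about 1 call in 100 departs from these limits); inconclusive means activation of 40% to 60%, or above that upper limit; inactive means activation under 40%.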 The list shows a part of the results.
Target: Probable G-protein coupled receptor 32 (Homo sapiens) (UniProt O75388)
Assay: qHTS for Agonists of Human Resolvin D1 Receptor DRV1; further: 0% is about no effect
Conditions: CHO-K1 GPR32 beta-arrestin PathHunter luminescence, 90 min; at 76.9 µM; hits give high values; zero percent set by DMSO-only wells
Summary of the method: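 Using DMSO wells as EC0, agonist-induced signal was taken as chemiluminescence from beta-Gal reconstituted upon beta-arrestin recruitment to GPR32 in CHO-K1 cells after 90 min compound treatment.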

UniProt O75388, sequence (O75388 whole entry, looked up): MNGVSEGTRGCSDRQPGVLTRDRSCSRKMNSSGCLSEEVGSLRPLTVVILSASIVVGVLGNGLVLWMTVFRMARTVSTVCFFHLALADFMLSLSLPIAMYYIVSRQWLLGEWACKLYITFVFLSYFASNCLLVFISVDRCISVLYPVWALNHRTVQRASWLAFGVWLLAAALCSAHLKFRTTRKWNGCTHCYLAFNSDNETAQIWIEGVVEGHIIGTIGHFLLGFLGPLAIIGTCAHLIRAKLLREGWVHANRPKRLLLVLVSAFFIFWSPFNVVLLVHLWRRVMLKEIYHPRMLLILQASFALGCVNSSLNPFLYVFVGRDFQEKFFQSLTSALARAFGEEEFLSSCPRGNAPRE

activation, inactive:
Cc1cc(Br)ccc1NC(=O)c1sc2ncn(Cc3ccccc3Cl)c(=O)c2c1C -22.2%, COc1cc(C2Oc3nc(SC)nnc3-c3ccccc3N2C(C)=O)cc(Cl)c1OC (stereo not drawn) -12.6%, O=C(CSc1oc(-c2ccco2)nc1S(=O)(=O)c1ccc(Br)cc1)c1ccc(Cl)cc1 -19.8%, CCOC(=O)c1ccc(NC(=O)C(CC)Sc2nncn3c2cc2oc(C)cc23)cc1 (stereo not drawn) -31.4%, Cc1cn2c(=O)cc(COC(=O)c3ccc(NC(=O)c4ccc(C(C)(C)C)cc4)cc3)nc2s1 -14.6%, COc1ccc(CNS(=O)(=O)c2csc(C(N)=O)c2)cc1OC -36.6%, COc1ccc(C2=Nc3ccccc3N(CC(=O)Nc3cccc(C(C)=O)c3)C(=O)C2)cc1 -18.6%, CCCCNc1nc2c(-c3cccc(Br)c3)nnn2c2ccccc12 9.63%, CCC1=C(c2ccc(C)cc2)S(=O)(=O)N=C1N1CCC(C(=O)NCCc2cccc(OC)c2)CC1 -9.01%, COc1cccc2c1cc1c(=O)n(CC(=O)NCCCN3CCN(C)CC3)nc(C)n12 -2.78%, COc1ccc(OCCCn2c(C)nc3cc(C)c(C)cc32)cc1 43.3%, O=C1Nc2c(c(=O)[nH]c(=O)n2-c2ccc(F)cc2)C1(NS(=O)(=O)c1ccc(Cl)cc1)C(F)(F)F (stereo not drawn) 1.86%, Cn1nnnc1SCCCNCc1cc(Cl)ccc1OCc1ccccc1 7.73%, COC(=O)c1ccc(OCC2c3cc(OC)c(OC)cc3CCN2C(=O)Cc2ccc(OC)c(OC)c2)cc1 (stereo not drawn) -8.29%, CC(C)c1nn2c(=O)cc(COC(=O)c3ccc4c(c3)OCO4)nc2s1 8.48%, COc1cc(C(=O)Nc2nnc(CC(C)(C)C)s2)cc(OC)c1OC 10.6%, CCc1ccc(NC(=O)C2CCCN2S(=O)(=O)c2cccc3nsnc23)cc1 (stereo not drawn) -8.38%, CC(=O)N1CCc2c(sc3c2c(=O)n(-c2ccccc2)c(=O)n3CC(=O)c2ccc(F)cc2)C1 1.83%, Cc1cn2c(=O)c(S(=O)(=O)NCCc3ccc(Cl)cc3)c(C)nc2s1 -17.4%, CCOc1ccc(C(=O)Nc2ccc(Cl)c(-c3nc4cc(C)cc(C)c4o3)c2)cc1 -0.895%, COc1ccc(-c2nc3sc(CCNC(=O)c4ccc(C(C)(C)C)cc4)c(C)n3n2)cc1 -4.13%, CCOc1ccccc1C(=O)Nc1cc2c(cc1C)n(C)c(=O)c(=O)n2C -21.4%, CCc1ccc2occ(CC(=O)NCc3ccccc3)c2c1 -17.7%, CC(C)c1ccc(NC(=O)c2cc(S(=O)(=O)NCCC3=CCCCC3)ccc2F)cc1 -18.1%, COc1ccc(NC(=O)Cc2ccc(NC(=O)N3CCCCc4ccccc43)cc2)c(OC)c1 -0.59%, CCN(CC)CCNC(=O)Cn1cnc2sc(C)c(S(=O)(=O)N3CCC(C)CC3)c2c1=O -0.716%, COc1ccc(CNC(=O)CN(C)S(=O)(=O)c2ccc3[nH]c4c(c3c2)CCCC4)cc1 9.45%, Cn1cc(-c2cc3n(n2)CCC(=O)N3CCCC(=O)NCc2ccccc2)c2ccccc21 -0.0515%, CCOC(=O)C1CCC(CN(Cc2ccc(OC)cc2)S(=O)(=O)c2ccc(F)c(C(=O)Nc3cc(Cl)ccc3OC)c2)CC1 (stereo not drawn) 6.03%, Cc1cc(C)cc(OC(C)C(=O)Nc2nc3c(s2)CCCC3)c1 (stereo not drawn) -14.5%, N#C/C(=C\c1ccc(O)c(O)c1)C(=O)NCCc1ccccc1 -2.52%, COc1ccc(NC(=O)c2ccco2)cc1NC(=O)c1ccc(OC(C)C)cc1 -8.57%, COc1cccc(/C=C(\C#N)c2nc3ccccc3c(=O)[nH]2)c1OC -8.31%, CCCC(C(=O)Nc1cc(C)c(Cl)cc1OC)N1Cc2ccccc2C1=O (stereo not drawn) -27.8%, COc1cc(NC(=O)Cn2cc(S(=O)(=O)N3CCC(C)CC3)c3ccccc3c2=O)cc(OC)c1OC -6.69%, CCOC(=O)C1=C(CNCc2ccc(Cl)cc2)NC(=O)NC1c1ccccc1 (stereo not drawn) 19.5%, CC(=O)N1c2ccccc2CC1C(=O)N1CCN(c2ccccc2F)CC1 (stereo not drawn) -13.9%, CCOC(=O)c1ccc(NC(=O)C2CCCN(c3cnccn3)C2)cc1 (stereo not drawn) -3.83%, COc1ccc(Oc2ncnc3c2oc2ccccc23)cc1 -6.86%, COc1cn(CC(=O)Nc2cccc(C)c2)c(CN2CCCCC2)cc1=O -6.29%, COc1ccc(CCNC(=O)Cn2nc(-c3ccc(Cl)cc3)ccc2=O)cc1OC -7.43%, CCOc1ccc(Nc2ncnc3onc(-c4ccc(Cl)cc4)c23)cc1 17.3%, CC(=O)c1ccc(N2CCN(S(=O)(=O)c3ccc(-c4cnc(C5CC5)o4)cc3)CC2)cc1 -46.3%, Cc1ccc(OCC(=O)Nc2ccc(C(=O)OCc3cc(=O)n4ccsc4n3)cc2)cc1C 37.2%, Cc1nc2sccn2c(=O)c1S(=O)(=O)Nc1cccc(Cl)c1C -7.83%, CCn1cc(/C=C(\NC(=O)c2ccc(OC)c(OC)c2)C(=O)NCCCn2ccnc2)c2ccccc21 -1.95%, CCOC(=O)c1cc(-c2ccc(OC)cc2)n(CCC(=O)NCCc2ccc(OCC)c(OCC)c2)c1C -33.2%, Cc1ccc(NC(=O)N2CCC(CN3CCCCC3)CC2)c(Cl)c1 4.65%, O=c1[nH]c(=O)c2nc3ccccc3nc2[nH]1 7.04%, CC(C)(C)OC(=O)N1CCC(c2c(C(=O)N3CCN(c4ncccn4)CC3)cnn2-c2ccc(F)cc2)CC1 -6.44%, CCOC(=O)c1c(-c2ccc(OC)cc2)oc2ccc(OCc3ccc(F)cc3F)cc12 9.34%, Cc1ccccc1Nc1nnc(-c2ccc(C)c(S(=O)(=O)NCC3CCCO3)c2)c2ccccc12 (stereo not drawn) -49.1%, Cc1ccc(C2C(=O)N(C3CCCCCC3)CC(=O)N2CCC2=CCCCC2)cc1 (stereo not drawn) -14.4%
